Laboratory results from PubChem BioAssay AID651813 (National Center for Advancing Translational Sciences (NCATS), 2012).
Hit rate of the full screen: of about 2,100 compounds, about 1,100 (52%) were called active. The set was probably picked from earlier hits. The inconclusive results got no clear call from the source; some entries with a clear call stand among them for comparison. Calls follow the shape of the dose curve; as a rule, active = well fitted inhibition curve with a large enough effect; inconclusive = small, poorly fitted or top-dose-only effect; inactive = no such curve, though single readings can be large or run the other way. No potency is given beside an inconclusive call; the fits are too rough.

target: DNA dC->dU-editing enzyme APOBEC-3G (Homo sapiens) (UniProt Q9HC16); test: qHTS for inhibitors of Vif-A3G interactions: Cherry picks counterscreen; conditions: HeLa A3G-eYFP + Vif (tagged APOBEC3G with the HIV-1 protein that degrades it), eYFP fluorescence, 24 h;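 also: hits raise yellow fluorescence by blocking Vif-driven A3G-eYFP degradation; nearly all actives have a fitted effect of over 70% in size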;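 as to max response: max response given as percent of control signal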
Procedure, shortened: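 HeLa cells stably expressing A3G-eYFP and Vif were treated for 24 h at 37 deg C with compounds at several concentrations; yellow fluorescence (Ex 488 nm, Em 500-530 nm) read by Acumen Explorer, MG132 as positive control.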
Potency is read from the fitted curve at half-maximal effect; tags tell the direction and shape of the fitted curve.

Chain of UniProt Q9HC16 (Q9HC16 whole entry, looked up): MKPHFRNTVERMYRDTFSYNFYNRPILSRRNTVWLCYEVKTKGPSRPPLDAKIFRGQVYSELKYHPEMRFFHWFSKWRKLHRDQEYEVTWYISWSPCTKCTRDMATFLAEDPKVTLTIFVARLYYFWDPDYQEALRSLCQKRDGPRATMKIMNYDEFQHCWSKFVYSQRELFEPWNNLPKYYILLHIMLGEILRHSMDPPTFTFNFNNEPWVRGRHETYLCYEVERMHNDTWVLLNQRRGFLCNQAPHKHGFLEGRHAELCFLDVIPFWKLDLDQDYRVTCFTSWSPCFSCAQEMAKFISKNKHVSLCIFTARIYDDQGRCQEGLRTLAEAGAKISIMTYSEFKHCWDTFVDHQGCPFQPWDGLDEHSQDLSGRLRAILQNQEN

Row | SMILES | max response | Potency
1 | CCOC(=O)c1cc(-c2ccccc2C)n(CC2CC(c3ccc(OC)cc3)=NO2)n1 (configuration not stated) | inactive: -3.65% | 
2 | CN1C/C(=C/c2cccnc2)C(=O)/C(=C/c2cccnc2)C1 |  | inconclusive [inhibitor, single point]
3 | O=C(N/N=C/c1ccc2c(c1)OCO2)c1ccc2c(c1)OCCO2 |  | inconclusive [inhibitor, single point]
4 | CC(C)OC(=O)c1ccc(NCc2cc(O)ccc2O)cc1Cl | inactive: -19.4% | 
5 | O=C(NCc1cccs1)C1CCN(c2ccc(S(=O)(=O)N3CCOCC3)cc2Cl)CC1 |  | inconclusive [inhibitor, partial curve]
6 | O=c1[nH]c(-c2cccnc2)nc2sc(-c3ccccc3)cc12 |  | active: 0.627 µM
7 | CC1=CC(C)(C)Nc2ccc(OC(=O)CN3C(=O)CCC3=O)cc21 |  | inconclusive [inhibitor, single point]
8 | COCCOC(=O)c1[nH]c2c(c1C)C(=O)CC(c1ccccc1)C2 (configuration not stated) |  | active: 0.994 µM
9 | COc1ccc(CN(C(C)=O)c2cccc(C)c2C)cc1 |  | active: 17.7 µM
10 | COc1ccc(-n2nnnc2S(=O)(=O)Cc2ccc(C(=O)O)cc2)cc1 |  | inconclusive [inhibitor, single point]
11 | COc1ccc(C(=O)N2CCN(c3cccc(Cl)c3)CC2)cc1S(=O)(=O)NC1CC1 |  | inconclusive [inhibitor, partial curve, poor fit]
12 | N#C/C(=C\c1ccccc1[N+](=O)[O-])C(=O)NCc1ccccc1 | inactive: 2.31% | 
13 | O=C1c2cccc3c(N4CCCCC4)ccc(c23)C(=O)N1c1ccccc1O |  | inconclusive [inhibitor, partial curve]
14 | O=C(N/N=C/c1ccc([N+](=O)[O-])o1)c1cc2c(ccc3ccccc32)o1 |  | inconclusive [inhibitor, single point]
15 | Cc1nc2c3cc(F)ccc3n(Cc3ccccc3)c2s1 |  | active: 7.04 µM
16 | CSc1nc(N)c(C#N)c(-c2ccccc2Cl)c1C#N |  | inconclusive [inhibitor, single point]
17 | CCOc1ccc2nc(NC(=O)c3nc(SC(C)C)ncc3Cl)sc2c1 |  | inconclusive [inhibitor, single point]
18 | O=C(/C=C/c1ccccc1)Nc1ncn[nH]1 |  | inconclusive [inhibitor, single point]
19 | COc1ccccc1/C=C/C=N/n1c(-c2ccc(C)cc2)n[nH]c1=S |  | inconclusive [inhibitor, full curve]
20 | Cc1ccc(S(=O)(=O)c2cc3ccccc3oc2=Nc2ccc3c(c2)OCO3)cc1 | inactive: 12.1% | 
21 | Cc1cc(C)n2nc(C(=O)N/N=C/c3c4ccccc4cc4ccccc34)nc2n1 |  | active: 15.8 µM
22 | N#Cc1c(NC(=O)c2ccc([N+](=O)[O-])o2)sc2c1CCC2 |  | inconclusive [inhibitor, full curve]
23 | COc1ccc(-n2nc3c(N4CCCC(C(=O)NCCc5ccccc5C)C4)nnc(C)c3c2C)cc1 (configuration not stated) |  | inconclusive [inhibitor, single point]
24 | CCCOc1ccc(N)cc1N | inactive: -27.6% | 

Row | SMILES | max response | Potency
25 | CCN(CC)C(=O)Cn1c(=O)n(-c2ccccc2)c(=O)c2c3c(sc21)CCC3 | inactive: -20.5% | 
26 | O=C(Nc1nc2ccc(F)cc2s1)c1ccc([N+](=O)[O-])o1 |  | inconclusive [inhibitor, partial curve, poor fit]
27 | O=C(N/N=C/c1cccc(F)c1)c1cc(-c2ccco2)nc2ccccc12 |  | inconclusive [inhibitor, single point]
28 | CC(=O)Nc1sc(C)c(C)c1C(=O)OCC(=O)Nc1ccccc1 |  | inconclusive [inhibitor, single point]
29 | O=C(Nc1ccc(Oc2ccc(NC(=O)Nc3ccccc3Cl)cc2)cc1)Nc1ccccc1Cl |  | inconclusive [inhibitor, single point]
30 | O=C1NC(=Nc2ccccc2Cl)S/C1=C\c1cc([N+](=O)[O-])ccc1O | inactive: -33% | 
31 | CCOc1cc(/C=C2\CCC/C(=C\c3cc(Cl)c(O)c(OCC)c3)C2=O)cc(Cl)c1O |  | active: 17.7 µM
32 | N#Cc1c(Nc2ccccc2)[n+]([O-])c2ccc(Cl)cc2[n+]1[O-] | inactive: 26.1% | 
33 | CC(C)(C)c1ccc(Oc2ccc(NC(=O)c3ccccc3C(=O)O)cn2)cc1 | inactive: 6.3% | 
34 | COc1ccccc1-c1cc(-c2ccccc2)nc(SC(C(N)=O)c2ccccc2)c1C#N (configuration not stated) | inactive: -23.2% | 
35 | O=C(N/N=C/c1ccc([N+](=O)[O-])o1)c1sc2ccccc2c1Cl |  | inconclusive [inhibitor, single point]
36 | N#C/C(=C/c1cccs1)c1ccccn1 |  | inconclusive [inhibitor, single point]
37 | COc1ccccc1N=C1NC(=O)/C(=C/c2ccc(N(C)C)cc2)S1 | inactive: 38.1% | 
38 | O=C(/C=C/c1ccco1)N1CCc2ccccc21 | inactive: -19.9% | 
39 | Cc1ccc(C2=NN(C(=O)c3cccs3)C(c3ccccc3O)C2)cc1 (configuration not stated) | inactive: 20.9% | 
40 | COc1ccc(C2CC(c3ccncc3)=NN2c2ccc(S(N)(=O)=O)cc2)cc1 (configuration not stated) |  | active: 5.17 µM
41 | NC(=S)N/N=C\c1ccc(-c2cccc(Cl)c2Cl)o1 |  | inconclusive [inhibitor, single point]
42 | Cc1ccc(C(=O)Nc2sc(Cc3ccc4c(c3)OCO4)c(C)c2C(N)=O)cc1 |  | active: 18.4 µM
43 | O=C1CC(c2cc(F)ccc2F)c2cc3c(cc2N1)CCC3 (configuration not stated) |  | inconclusive [inhibitor, full curve]
44 | Cc1ccc2[nH]c3c(c2c1)CCCC3NC(=O)CCl (configuration not stated) |  | inconclusive [inhibitor, single point]
45 | O=C(Nc1nc(NC(=O)c2ccco2)n(-c2ccccc2)n1)c1ccccc1 | inactive: -0.0667% | 
46 | O=C1c2ccccc2-c2onc3c(N4CCN(C5CCCCC5)CC4)cc(NCCO)c1c23 |  | active: 2.59 µM
47 | CC1(C)CC(=O)C(C=Nc2cc(C(=O)c3ccccc3)ccc2N)=C(O)C1 |  | inconclusive [inhibitor, single point]
48 | COc1ccc2[nH]c3c(c2c1)CCNC3c1ccc([N+](=O)[O-])o1 (configuration not stated) |  | inconclusive [inhibitor, single point]

Row | SMILES | max response | Potency
49 | COc1ccc(N=c2oc3ccc(OC)cc3cc2-c2nc3ccccc3[nH]2)cc1 |  | inconclusive [inhibitor, partial curve, poor fit]
50 | O=C(N/N=C/c1sc(=O)n(Cc2ccc(Br)cc2)c1Cl)c1ccco1 | inactive: -16.3% | 
51 | CCN1CCN(Cc2ccc(NC(=O)c3ccc(C)c(/C=C/c4cnc(Nc5cc(N6CCNCC6)nc(C)n5)cn4)c3)cc2C(F)(F)F)CC1 |  | inconclusive [inhibitor, single point]
52 | COc1cc(/C=C(/C(=O)c2cccs2)c2nc3ccccc3[nH]2)ccc1O |  | inconclusive [inhibitor, single point]
53 | CCN(CC)c1nc2cc(OC)ccc2cc1C#N |  | inconclusive [inhibitor, single point]
54 | COC1=C(OC)C(=O)C(Sc2ccc3ccccc3c2)=CC1=O |  | inconclusive [inhibitor, single point]
55 | Cc1ccc(/C=N/NC(=O)CCCOc2ccc(Cl)cc2Cl)cc1 |  | active: 7.9 µM
56 | Cc1cc(/C=C2\SC(=S)N(Cc3ccco3)C2=O)c(C)n1-c1cccnc1 |  | active: 9.2 µM
57 | COc1cc(NC(=O)C2=C(N3CCOCC3)/C(=C\c3ccc(N(C)C)cc3)CCC2)cc(OC)c1OC |  | active: 3.53 µM
58 | O=[N+]([O-])c1ccc(-c2ccc(/C=N/Nc3nc(NCc4ccccc4)nc(N4CCOCC4)n3)o2)cc1 |  | active: 10.3 µM
59 | COc1ccc(/C=C(/C(=O)c2cccs2)N2C=CC=CC2=C(C#N)C#N)cc1 |  | active: 15.8 µM
60 | CC1(C(=O)Nc2ccc3c(c2)OCO3)Cc2c(-c3ccccc3)ccnc2O1 (configuration not stated) |  | inconclusive [inhibitor, partial curve, poor fit]
61 | CN(C)c1ccc(/C=C/c2ccnc3ccccc23)cc1 |  | active: 20.6 µM
62 | CN(C)c1ccc(/C=C/c2nc3ccccc3c(=O)[nH]2)cc1 |  | inconclusive [inhibitor, partial curve]
63 | CCOCCCNC(=O)/C(C#N)=C/c1ccc([N+](=O)[O-])o1 |  | active: 23.1 µM
64 | c1ccc(Nc2nc(-c3ccccn3)cs2)cc1 | inactive: 16.2% | 
65 | N#C/C(=C\c1ccc(-c2ccccc2C(=O)O)o1)c1nc2ccccc2[nH]1 |  | inconclusive [inhibitor, single point]
66 | CCCn1c(C2CCCN2c2nc(-c3cccc(Br)c3)cs2)nc2ccccc21 (configuration not stated) | inactive: -7.22% | 
67 | CSC1=NC(C(Cl)(Cl)Cl)N=C(c2ccccc2)N1 (configuration not stated) |  | inconclusive [inhibitor, partial curve, poor fit]
68 | O=c1c2ccccc2nc(/C=C/c2ccc([N+](=O)[O-])o2)n1CCCO |  | active: 10.3 µM
69 | O=C(O)CSc1cc(NS(=O)(=O)c2cccc([N+](=O)[O-])c2)c2ccccc2c1O | inactive: -17.9% | 
70 | COc1ccc(N/C=C/C(=O)c2cc(OC)c(OC)c(OC)c2)cc1 |  | active: 0.886 µM
71 | O=C(NC(=S)Nc1ccc(-c2ccccc2)cc1)c1ccccc1 | inactive: 2.13% | 
72 | COc1cc(/C=N/NC(=O)c2cc(-c3c(C)nn(-c4ccccc4)c3C)n[nH]2)ccc1O |  | inconclusive [inhibitor, single point]
